Data as given in the supplement of paper PMC8183993.
Where “and” joins values, the source holds several entries; their conditions need not be identical. Identical values can stand only once. Counter-ions that a name gives are not always drawn. ± gives the standard deviation of the averaged measurements. Over roughly 3,100 compounds, “mean cytoplasmic OPP incorporation (global translation) relative to DMSO” has its median near 100; the lowest 2% begin near 56. The list shows a part of the results. Numbered stars: 1 amine (or outer) side, 2 acyl side, 3 side chain; on linkers, the order of the positions; unused ones are H or OH. Bridge positions count the residues as written; N and C are the ends. Square brackets hold non-standard residues; d marks the D form. Peptide text beside a SMILES is read from it. * marks the point of attachment. X1 = NC1=N[C@@H]([C@H](N[*:1])C(=O)[*:2])C[C@H](O)N1; ΔAla(Z-3-ureido) = NC(=O)N/C=C(\N)C(=O)O; β3hOrn = NCCC[C@H](N)CC(=O)*; Dap = NC[C@H](N)C(=O)O

test system: U2OS; test: mean cytoplasmic OPP incorporation (global translation) relative to DMSO (% of DMSO); higher = more protein synthesis; details: 10 µM; 24 h
Procedure: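 Primary image-based screen in U2OS cells: compounds at 10 uM for 24 h, then a 1 h o-propargyl-puromycin (OPP) pulse, click labelling, and high-throughput microscopy. Mean cytoplasmic OPP intensity and nuclei count were normalised to DMSO wells within each plate (DMSO = 100) and averaged over triplicate plates.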

| SMILES | mean cytoplasmic OPP incorporation |
| --- | --- |
| CCC(=O)OCC(=O)[C@@]1(OC(=O)CC)[C@@H](C)C[C@H]2[C@@H]3CCC4=CC(=O)C=C[C@]4(C)[C@@]3(Cl)[C@@H](O)C[C@@]21C [Beclomethasone dipropionate] | 106 |
| CCC(=O)OCC(=O)[C@@]1(OC(=O)CC)[C@@H](C)C[C@H]2[C@@H]3CCC4=CC(=O)C=C[C@]4(C)[C@@]3(Cl)[C@@H](O)C[C@@]21C [Beclomethasone dipropionate (Beclometasone dipropionate)] | 106 |
| COc1ccc2[nH]c(C(=O)c3ccccc3)cc2c1 | 81.3 |
| O=C(/C=C/C=C/c1ccc2c(c1)OCO2)N1CCCCC1 [Piperine (1-Piperoylpiperidine)] | 98.8 |
| COc1nc(N)nc2c1ncn2[C@@H]1O[C@H](CO)[C@@H](O)[C@@H]1O [Nelarabine (Arranon)] | 101 |
| OC[C@H]1O[C@H](O[C@H]2O[C@H](CO)[C@@H](O)[C@H](O)[C@H]2O)[C@H](O)[C@@H](O)[C@@H]1O [Trehalose] | 94 |
| CN(C)CCCn1cc(C2=C(c3c[nH]c4ccccc34)C(=O)NC2=O)c2ccccc21 | 90.7 and 79.3 |
| CN/C(=N\c1ccc(C2=NNC(=O)CC2C)cc1)NC#N (stereo not given) [Siguazodan] | 99.9 |
| COc1ccccc1N1CCN(CCCNc2cc(=O)n(C)c(=O)n2C)CC1 [Urapidil hydrochloride] | 99.8 ± 5.4 |
| O=C(Nc1cccc(Nc2ncc(Br)c(NCCc3cnc[nH]3)n2)c1)N1CCCC1 | 86.6 ± 3.9 |
| O=C1CCC(N2C(=O)c3ccccc3C2=O)C(=O)N1 (stereo not given) [Thalidomide] | 97.7 ± 4.5 |
| O=C1NCCN1CCN1CCC(c2cn(-c3ccc(F)cc3)c3ccc(Cl)cc23)CC1 [Sertindole] | 108 |
| O=C(Nc1cccc2cccnc12)c1ccc(N2C(=O)[C@@H]3[C@H](C2=O)[C@@H]2C=C[C@H]3C2)cc1 [endo-IWR 1] | 105 |
| CCCCc1nc(Cl)c(CO)n1Cc1ccc(-c2ccccc2-c2nnn[nH]2)cc1 [Losartan] | 109 |
| CC1(C)S[C@@H]2[C@H](NC(=O)Cc3ccccc3)C(=O)N2[C@H]1C(=O)O [Benzylpenicillin sodium] | 80.8 |
| CC1(C)S[C@@H]2[C@H](NC(=O)Cc3ccccc3)C(=O)N2[C@H]1C(=O)O [Benzathine benzylpenicillin] | 104 |
| Cc1nc2n(c(=O)c1CCN1CCC(c3noc4cc(F)ccc34)CC1)CCCC2O (stereo not given) [Paliperidone (Invega)] | 108 |
| CCN(CC)CCNC(=O)COc1ccc(OC)cc1 [Mefexamide hydrochloride] | 99 |
| Clc1ccc(C(Cn2ccnc2)OCc2csc3c(Cl)cccc23)c(Cl)c1 (stereo not given) [Sertaconazole nitrate] | 110 |
| C=CCn1c(=O)c2cnc(Nc3ccc(N4CCN(C)CC4)cc3)nc2n1-c1cccc(C(C)(C)O)n1 | 64.3 |
| CC(=O)OCC1=C(C(=O)O)N2C(=O)[C@@H](NC(=O)Cc3cccs3)[C@H]2SC1 [Cephalothin sodium salt] | 99.8 |
| C[C@H]1[C@H](OC(=O)CCC(=O)O)O[C@@H]2O[C@@]3(C)CC[C@H]4[C@H](C)CC[C@@H]1[C@@]24OO3 [Artesunate] | 89.4 |
| CN(CCOc1ccc(C[C@H](Nc2ccccc2C(=O)c2ccccc2)C(=O)O)cc1)c1ccccn1 | 106 |

| SMILES | mean cytoplasmic OPP incorporation |
| --- | --- |
| O=C(O)CCNC(=O)c1ccc(/N=N/c2ccc(O)c(C(=O)O)c2)cc1 [Balsalazide Sodium] | 102 |
| Cc1cccc(Nc2ccccc2C(=O)O)c1C [Mefenamic acid] | 94.1 |
| CCC(C)n1ncn(-c2ccc(N3CCN(c4ccc(OCC5COC(Cn6cncn6)(c6ccc(Cl)cc6Cl)O5)cc4)CC3)cc2)c1=O (stereo not given) [Itraconazole] | 117 |
| CCC(C)n1ncn(-c2ccc(N3CCN(c4ccc(OCC5COC(Cn6cncn6)(c6ccc(Cl)cc6Cl)O5)cc4)CC3)cc2)c1=O (stereo not given) [Itraconazole (Sporanox)] | 109 |
| CCOc1cc(N)c(Cl)cc1C(=O)NCC1CN(Cc2ccc(F)cc2)CCO1 (stereo not given) [Mosapride citrate] | 116 |
| C[n+]1ccccc1/C=N/O [Pralidoxime chloride] | 98.4 |
| CNCCCN1c2ccccc2CCc2ccccc21 [Desipramine hydrochloride] | 108 |
| O=C1OC(CN2CCOCC2)CN1/N=C/c1ccc([N+](=O)[O-])o1 (stereo not given) [Furaltadone hydrochloride] | 100 |
| Cc1ccc(-c2c(-c3nn(C)c4ncnc(N5CC[C@H](N6CCCCC6)C5)c34)cnn2C)cc1 | 111 |
| O=C1c2c(O)cc(O)cc2O[C@H](c2cc(O)c(O)c(O)c2)[C@H]1O [Dihydromyricetin (Ampeloptin)] | 98.1 |
| Cc1cccc(C(=O)NCN2CCN(c3ccccc3C#N)CC2)c1 | 94.9 |
| CN(C)CCCN1c2ccccc2CCc2ccccc21 [Imipramine hydrochloride] | 91.1 |
| C[C@H]1COc2c(N3CCN(C)CC3)c(F)cc3c(=O)c(C(=O)O)cn1c23 [Levofloxacin (Levaquin)] | 93.6 |
| NC(CO)C(=O)NNCc1ccc(O)c(O)c1O (stereo not given) [Benserazide hydrochloride] | 97.5 |
| CCN(CC)CCCCN1c2ccccc2Oc2ccc(Cl)cc21 [10-DEBC hydrochloride] | 104 |
| CCCC(=O)OCOC(=O)C1=C(C)NC(C)=C(C(=O)OC)C1c1cccc(Cl)c1Cl (stereo not given) [Cleviprex (Clevidipine)] | 96.7 |
| NCCC[C@H](N)CC(=O)N[C@H]1CNC(=O)[C@H]([C@H]2C[C@H](O)NC(N)=N2)NC(=O)/C(=C/NC(N)=O)NC(=O)[C@H](CO)NC(=O)[C@H](CO)NC1=O [Viomycin sulfate] (β3hOrn-[Dap]SS[ΔAla(Z-3-ureido)][X1]; lactam 1-C) | 106 |
| O=c1[nH]cnc2c1ncn2[C@H]1CC[C@@H](CO)O1 [Didanosine] | 86.9 |
| CN1CCN(c2ccc(OC(F)(F)F)c(Nc3ncc4c(n3)-c3c(c(C(N)=O)nn3CCO)CC4)c2)CC1 | 118 |
| Nc1nc(O)c2ncn(CCC(CO)CO)c2n1 [Penciclovir] | 97 |
| Fc1ccc([C@@H]2CCNC[C@H]2COc2ccc3c(c2)OCO3)cc1 [Paroxetine Hydrochloride] | 98.8 |
| Fc1ccc([C@@H]2CCNC[C@H]2COc2ccc3c(c2)OCO3)cc1 [Paroxetine maleate] | 101 |
